Measurements reported in ChEMBL document CHEMBL4888484, “Replenishing the malaria drug discovery pipeline: Screening and hit evaluation of the MMV Hit Generation Library 1 (HGL1) against asexual blood stage Plasmodium falciparum ,using a nano luciferase reporter read-out” (2022).
About 540 (0.36%) of roughly 150,000 compounds showed an effect of 50% or more. The list shows a part of the results.

Each molecule was assayed on Plasmodium falciparum (assay: Primary screen in NF54 nanoGlo assay, in single point, at 2uM, 72h; a lower Z score goes with more inhibition). Conditions: timepoint 72 hour.
Format: functional, Erythrocyte
In the case of `Cc1nc(CC2CC2)oc1C(=O)N[C@@H](C)C1CCOCC1`, the “% Inhibition” value is reported as -18% and the Z score is reported as 2.26.
In the case of `O=C(COc1ccccc1F)Nc1nnc(-c2cc(Cl)sc2Cl)o1`, the “% Inhibition” value is reported as 0% and the Z score is reported as 0.
In the case of `CCOCCC(=O)N1CCC[C@H](C(=O)OCC)C1`, the “% Inhibition” value is reported as -10% and the Z score is reported as 1.91.
With `O=C(c1ccccc1)N1C[C@H]2CCCC(=O)N(Cc3cccc(F)c3)[C@H]2C1` the “% Inhibition” value was 2% and the Z score was -0.33.
`CCN(Cc1ncc(C)o1)c1ccc(O)cc1` was tested, and the “% Inhibition” value was -34% and the Z score was 3.98.
With `CCCc1ccc(C(=O)[C@H](C#N)C(=O)c2ccc(OC)nc2)cc1` the “% Inhibition” value was -21% and the Z score was 1.94.
In the case of `CC12CN(Cc3ccccc3)CC1(C)CN(c1cnc(C#N)cn1)C2` (stereo not given), the “% Inhibition” value is reported as -3% and the Z score is reported as 0.63.
For `CC(C)(C)[C@H]1CCCN(C(=O)CCS(C)(=O)=O)CC1`, the “% Inhibition” value was 5% and the Z score was -0.95.
In the case of `Cc1ccc(N(C)Cc2nc(C3CC3)no2)c(C)c1`, the “% Inhibition” value is reported as 6% and the Z score is reported as -0.75.
With `Cc1[nH]c2c(F)cc(F)cc2c1CCNC(=O)CN1CC[C@H](N(C)C)C1` the “% Inhibition” value was -14% and the Z score was 1.96.
`O=C(Nc1ccc2c(c1)OCCO2)N1CCC(O)CC1` was tested, and the “% Inhibition” value was 31% and the Z score was -0.65.
With `O=C(Cc1n[nH]c(=O)c2ccccc12)NCc1ccc(Cn2cccn2)cc1` the “% Inhibition” value was -4% and the Z score was 0.56.
With `COC(C(=O)N(C)C1C2CCOC2C1(C)C)c1ccccc1` (stereo not given) the “% Inhibition” value was -1% and the Z score was 0.27.
With `O=C(C1CCOCC1)N1CCCN(C2CCC2)CC1` the “% Inhibition” value was -6% and the Z score was 1.01.
`CC1(C)CN(S(=O)(=O)C2CCC2)[C@H]1C1CC1` was tested, and the “% Inhibition” value was -2% and the Z score was 0.27.
In the case of `CCOc1cc(CN(C)C[C@H]2COCCO2)c(Cl)cc1OC`, the “% Inhibition” value is reported as 5% and the Z score is reported as -0.94.
In the case of `CN1CCC(Cc2nc(-c3ccon3)n(-c3ccc(F)cc3F)n2)CC1`, the “% Inhibition” value is reported as 15% and the Z score is reported as -2.52.
With `C[C@H](NC(=O)CCc1ccc2c(c1)CCO2)c1nnc2ccccn12` the “% Inhibition” value was 8% and the Z score was -1.
In the case of `C#CCN(C(=O)c1ccc2c(c1)CCC(=O)N2)c1nccs1`, the “% Inhibition” value is reported as 2% and the Z score is reported as -0.32.
For `CCCc1cc(CNS(=O)(=O)N2CCC[C@@H]2COC)on1`, the “% Inhibition” value was 3% and the Z score was -0.5.
In the case of `Cc1cnc(C2CC2)n1[C@H]1CCN(C(=O)c2nccc3ccccc23)C1`, the “% Inhibition” value is reported as -15% and the Z score is reported as 1.87.
For `O=C(c1ccc2n[nH]c(=O)n2c1)N1CC[C@H]1C1CCCC1`, the “% Inhibition” value was -10% and the Z score was 1.61.
In the case of `COc1cccc(C(=O)N2C[C@@H]3CC[C@H]2CN(Cc2c(C)noc2C)C3)c1`, the “% Inhibition” value is reported as 4% and the Z score is reported as -0.53.
`Cc1cc(N(C)C)nc(NC(=O)NCC2CCOCC2)n1` was tested, and the “% Inhibition” value was -1% and the Z score was 0.12.
`C#CCN1CCCCC1C(=O)NCC(C(C)C)N1CCN(C)CC1` (stereo not given) was tested, and the “% Inhibition” value was -4% and the Z score was 0.49.
`O=C(NC1CC2CC2C1)c1ccnc2nn[nH]c12` (stereo not given) was tested, and the “% Inhibition” value was 2% and the Z score was -0.32.
In the case of `C[C@@H](CNCc1ccnn1C)c1cccc(Cl)c1`, the “% Inhibition” value is reported as -3% and the Z score is reported as 0.59.
`COc1cccc(CCC(=O)N2CC(C)[S+]([O-])C(C)C2)c1F` (stereo not given) was tested, and the “% Inhibition” value was -11% and the Z score was 1.17.
`CCOc1cc2c(cc1CN1C[C@H](O)C[C@H]1C(=O)O)CCC2` was tested, and the “% Inhibition” value was -5% and the Z score was 0.65.
For `CC[C@H](C)NC(N)=NCc1ccc(Cn2ccnc2)cc1`, the “% Inhibition” value was -3% and the Z score was 0.26.
`CC(=O)NCC(=O)NC1CCC(C)CC1` (stereo not given) was tested, and the “% Inhibition” value was 3% and the Z score was -0.38.
`O=C1CN(C[C@H](O)C(F)(F)F)CCN1CC1CCCC1` was tested, and the “% Inhibition” value was -1% and the Z score was 0.14.
`O=C(NCC(F)(F)C1(O)CCCCC1)c1ccncc1` was tested, and the “% Inhibition” value was -4% and the Z score was 0.36.
In the case of `Cc1cncc(Br)c1NC(=O)COC[C@H]1CCCO1`, the “% Inhibition” value is reported as -9% and the Z score is reported as 1.22.
With `COC1CCC2OCCN(CC(O)c3cccc(Cl)c3)C2C1` (stereo not given) the “% Inhibition” value was -4% and the Z score was 0.4.
With `CC(C)c1nn(-c2ccccc2)c(N(C)C)c1CN(C[C@H]1CCCO1)C(=O)c1ccc(Cl)cc1` the “% Inhibition” value was -7% and the Z score was 1.18.
`Cc1ccccc1-n1ncc2c1CC(C)(C)C[C@@H]2NS(=O)(=O)C1CC1` was tested, and the “% Inhibition” value was -14% and the Z score was 1.74.
`COc1ccc(Nc2ccc(NC(=O)CCc3cccnc3)cc2)cc1` was tested, and the “% Inhibition” value was -2% and the Z score was 0.36.
`Cn1ccc(CNC2CCC(c3cccc(F)c3)C2)n1` (stereo not given) was tested, and the “% Inhibition” value was -5% and the Z score was 0.68.
In the case of `N#CCC(=O)N1CCC[C@@H](C(F)(F)F)[C@H]1C(F)(F)F`, the “% Inhibition” value is reported as -2% and the Z score is reported as 0.44.
For `CCc1cc(N2CCC(N[C@@H](CC)c3ccncc3)CC2)nc(N(C)C)n1`, the “% Inhibition” value was -8% and the Z score was 1.05.
For `Cc1ccccc1[C@]1(F)CCN(C(=O)Nc2c(C)noc2C(C)C)C1`, the “% Inhibition” value was -4% and the Z score was 0.48.
`Cc1nc2n(n1)CCN(C(=O)Nc1cccc(N(C)C(C)C)c1)C2` was tested, and the “% Inhibition” value was 12% and the Z score was -1.14.
In the case of `O=C(Nc1ccon1)c1nc(-c2cnccn2)no1`, the “% Inhibition” value is reported as -6% and the Z score is reported as 0.83.
`O=S1(=O)CCC(CN2CCOC(c3ccc(Br)cc3)C2)C1` (stereo not given) was tested, and the “% Inhibition” value was -30% and the Z score was 3.47.
With `Cc1cc(=O)n2nc(NCc3ccccc3)c(NC(=O)c3ccccc3)c2[nH]1` the “% Inhibition” value was -25% and the Z score was 3.34.
`COCc1ccc(C(=O)N(Cc2cccc(OC)c2OC)C2CCCC2)o1` was tested, and the “% Inhibition” value was -10% and the Z score was 1.39.
With `Cc1ccc(S(=O)(=O)c2c(NS(=O)(=O)c3ccc(F)cc3)n(C[C@H]3CCCO3)c3nc4ccccc4nc23)cc1` the “% Inhibition” value was 6% and the Z score was -0.71.
For `CC(=O)N(CCN1CCOCC1)[C@H]1CCN(S(=O)(=O)c2cc(F)ccc2C)C1`, the “% Inhibition” value was 4% and the Z score was -0.59.
`C[C@H](NCc1ccccc1OCC(=O)N1CCCCC1)c1nncn1C` was tested, and the “% Inhibition” value was 3% and the Z score was -0.41.
In the case of `CC(C)c1ccc(NC(=O)[C@@H](c2ccccc2)N(Cc2ccccc2)Cc2ccccc2)cc1`, the “% Inhibition” value is reported as 2% and the Z score is reported as -0.35.
For `Cc1ccc(Cn2ncc3c(NC4CCCCC4)ncnc32)cc1`, the “% Inhibition” value was 3% and the Z score was -0.33.
With `CC1(C)C[C@@H]1C(=O)NCCCn1ccnn1` the “% Inhibition” value was -4% and the Z score was 0.85.
With `CC[C@H](C)N(Cc1ccc(OS(=O)(=O)C(C)C)cc1)C(=O)CC(C)(C)C` the “% Inhibition” value was -4% and the Z score was 0.58.
In the case of `O=C(NCCC1=CCCCC1)c1ccc([C@H]2Nc3cc(C(F)(F)F)ccc3S(=O)(=O)N2)cc1`, the “% Inhibition” value is reported as -11% and the Z score is reported as 1.34.
